Measurements: ChEMBL document CHEMBL1201862, “PubChem BioAssay data set” (2004)
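Assay format: 96-well plates, 48-hour exposure. GI50 = concentration required for 50% inhibition of growth.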 The source made the active and inactive calls. Rule as the data show it: active = GI50 up to about 1.1 µM and inactive = higher.

Test system: NCI-H322M
Test: NCI-60 cell line screen, 48 h

SMILES	GI50
O=C(/C=C/c1ccccc1)Oc1cccc2cccnc12	inactive: 13.8 µM
Nc1ccc(-c2nc3ccccc3s2)cc1CO	inactive: > 84.3 µM
Oc1ccccc1C(c1cc2c(cc1O)OCO2)N1CCOCC1 (centres undefined)	inactive: 42.6 µM
CCOC(=O)NC(Nc1ncccn1)(C(F)(F)F)C(F)(F)F	inactive: > 100 µM
CN(C)Cc1cc(C(F)(F)F)ccc1C(O)(c1ccccc1)c1ccccc1	inactive: 13.3 µM
OC1CSc2nc3ccccc3n2C1 (centres undefined)	inactive: > 100 µM
CCON=C1C(C)(C)C(C)(C)C(C)(C)C1(C)C	inactive: > 100 µM
N=C(N)Nc1ccc(-c2ccc(NC(=N)N)cc2)cc1	inactive: 48.2 µM
Nc1c2ccccc2nc2ccc3c(=O)cc(-c4ccccc4)oc3c12	active: 1.02 µM
COc1ccc(OC)c2sc(N3C(=O)/C(=C/Cc4ccco4)N=C3c3ccccc3)nc12	inactive: > 100 µM
N#Cc1cc([N+](=O)[O-])ccc1NC(=O)/C(=N/N)C(C(=O)c1ccc(Cl)c(Cl)c1)C1OC(=O)c2ccccc21 (centres undefined)	inactive: 58.7 µM
CCCN(CCC)C1CCc2c(ccc3cc[nH]c23)C1 (centres undefined)	inactive: > 100 µM
CC(=O)NNc1nc(C)c(C(/C=C/c2ccc(Cl)cc2)=N/NC(=O)C[N+](C)(C)C)s1	inactive: > 100 µM
O=C(/C=C/c1ccc2c(c1)OCO2)Cc1nc2ncccc2[nH]c1=O	inactive: > 100 µM
CC(=O)OC1[C@@H](OC(C)=O)CN(OCc2ccccc2)C[C@H]1OC(C)=O (some centres undefined)	inactive: > 100 µM
O=c1c2ccccc2nc(-c2ccccc2)n1NC(=S)Nc1ccc(Cl)cc1	inactive: > 100 µM
CC12CC3C(CC1SCC(=O)O2)C3(C)C (centres undefined)	inactive: > 100 µM
CC(C)NC(=O)OCc1c(COC(=O)NC(C)C)n(C)c2c1ccc1cc(Cl)c(Cl)cc12	inactive: 13.8 µM
Cc1[nH]c2ccccc2c1C1Cc2ccccc2N1C(=O)/C=C/C(=O)O (centres undefined)	inactive: > 100 µM
NNC(=O)c1ccccc1NC(=O)/C(=C/c1ccccc1)NC(=O)c1ccccc1	inactive: > 100 µM
CN(C)C(=O)NC(=S)N(C)C	inactive: > 100 µM
O=C1c2ccccc2C(=O)c2c(/C=C\N3CCCCC3)ccnc21	inactive: 2.81 µM
CC(=O)NC1CONC1=O (centres undefined)	inactive: > 100 µM

SMILES	GI50
CN1N=C(c2ccncc2)OC1c1ccccc1F (centres undefined)	inactive: > 100 µM
C=C1C(=O)OC2/C=C(\C)C(OC(C)=O)C3OC3C(C)(O)CC(OC(=O)/C(C)=C/C)C12 (centres undefined)	inactive: 17.7 µM
COc1ccc(N2C(=O)CC(=O)N(C(=O)COc3ccc(OCC(=O)N4C(=O)CC(=O)N(c5ccc(OC)cc5)C4=S)cc3)C2=S)cc1	inactive: 28.8 µM
C[C@@H]1CC[C@@]2(OC1)O[C@H]1C[C@H]3[C@@H]4CC[C@H]5C[C@@H](OC6OC(CO)C(OC7OC(CO)C(O)C(OC8OCC(O)C(O)C8O)C7OC7OC(CO)C(O)C(O)C7O)C(O)C6O)[C@H](O)C[C@]5(C)[C@H]4CC[C@]3(C)[C@H]1[C@@H]2C (some centres undefined)	inactive: 11.9 µM
NC1=C(NC(=O)Cc2ccc(F)cc2)C(=O)c2ccccc2C1=O	inactive: > 100 µM
CCOC(=O)c1ccc(C(=O)/C(C#N)=C2\CCCN2)[nH]1	inactive: > 100 µM
COc1ccc2cc(NC(=O)N/N=C\c3ccc(Cl)cc3)ccc2c1	inactive: > 100 µM
N=C(N)N/N=C/c1oc(-c2ccc(S(=O)(=O)O)o2)c(-c2ccc(S(=O)(=O)O)o2)c1[N+](=O)[O-]	inactive: > 100 µM
CC1=C(C(=O)N(C)c2ccc(Cl)c(C(=O)OC(C)C)c2)SCCO1	inactive: > 100 µM
CC(C)C[C@@H](NC(=O)[C@@H](Cc1cccc2ccccc12)NC(=O)N1CCOCC1)B(O)O	inactive: > 100 µM
CC(=O)c1nc(C#N)c(N)o1	inactive: > 100 µM
CCn1c(-c2ccc(/N=N/Nc3ccc(-c4n[nH]c(=S)n4CC)cc3)cc2)n[nH]c1=S	inactive: 2.58 µM
Cc1cc2c(cc1C(=O)c1ccc(N)cc1)OCO2	inactive: 84.9 µM
On1c(-c2ccccc2)c(-c2ccccc2N2CCCC2)c2ccccc21	inactive: > 100 µM
COc1ccc(C2CC(c3cc(C)ccc3O)=NC(N)=N2)cc1 (centres undefined)	inactive: > 100 µM
Cn1c2ccccc2c(=O)c2cccc(C(=O)NCC(=O)O)c21	inactive: > 100 µM
Cc1ccc(C)c(NC(=O)/C(=N\NC(N)=S)C(C#N)c2ccccc2)c1 (centres undefined)	inactive: > 100 µM
COc1ccc(N(CN2C(=O)CCC2C(=O)O)C(C)=O)cc1 (centres undefined)	inactive: > 100 µM
COC(=O)CNS(=O)(=O)c1ccc(-c2c3nc(c(-c4ccc(S(=O)(=O)NCC(=O)OC)cc4)c4ccc([nH]4)c(-c4ccc(S(=O)(=O)NCC(=O)OC)cc4)c4nc(c(-c5ccc(S(=O)(=O)NCC(=O)OC)cc5)c5ccc2[nH]5)C=C4)C=C3)cc1	inactive: > 100 µM
CCCNC(=O)OCc1c(COC(=O)NCCC)c(-c2ccc(Cl)c(Cl)c2)n2c1CCC2	inactive: 7.64 µM
COc1cc(C2C3=C(CCCC3=O)N(c3ccc(C)cc3)C3=C2C(=O)CCC3)c([N+](=O)[O-])cc1OC	inactive: 35.7 µM
O=C1c2ccccc2-c2nc(-c3cccnc3)cc3c2c1nc1ccccc13	inactive: > 100 µM
O=C(C/C(=N/O)c1cc(-c2ccccc2)no1)c1ccccc1	inactive: > 100 µM

SMILES	GI50
N#Cc1c(-c2ccccc2)c(C#N)c(=S)n(C2OC(CO)C(O)C(O)C2O)c1N (centres undefined)	inactive: > 100 µM
C=C(CCC(=O)N(CCc1c[nH]c2ccccc12)C(=O)c1ccccc1CSCC)C(=O)OC	inactive: 71.3 µM
O=C(c1ccccc1)c1c(CC(O)c2ccccc2)n(C(=O)c2ccccc2)c2ccccc12 (centres undefined)	inactive: 71.6 µM
Cc1nc2ccc(S(=O)(=O)Nc3ccccc3Cl)cc2c(=O)n1NC(=O)CNc1ccccc1Cl	inactive: > 100 µM
O=C(CC1C(=O)Nc2ccccc2[S+]1[O-])Nc1ccccc1 (centres undefined)	inactive: > 100 µM
Cc1cccc(NC(=O)CC#N)c1Cl	inactive: > 100 µM
Cn1nc2c(c1N)Cc1c(nn(C)c1N)-c1ccccc1-2	inactive: > 100 µM
[O-][S+]1c2ccccc2N=C(c2ccc3ccccc3c2)CC1c1ccccc1F (centres undefined)	inactive: > 100 µM
O=C(CC(O)(C(F)(F)Cl)C(F)(F)Cl)CC(O)(C(F)(F)Cl)C(F)(F)Cl	inactive: 2.06 µM
OC1CC1Sc1ccccc1 (centres undefined)	inactive: 77.4 µM
CS(=O)(=O)NNS(=O)(=O)c1ccc(Cl)cc1	inactive: > 100 µM
Cc1cc2c(cc1-c1cc3c(cc1C)C(C(C)C)=C(O)C(=O)/C3=C\Nc1ccccn1)/C(=C/Nc1ccccn1)C(=O)C(O)=C2C(C)C	inactive: 77.6 µM
CCOC(=O)CC1C(O)C(=O)N(C)C1c1ccccc1 (centres undefined)	inactive: > 100 µM
CCN(CC)CC(O)c1ccc2ccc3ccccc3c2c1 (centres undefined)	inactive: 15.4 µM
COc1cc2cc3c4c(cc(OC)c(OC)c4c2cc1OC)CCN3C(=O)OCCN1CCNCC1	inactive: 18.2 µM
COC(=O)C1CC2(CCC1=O)Cc1ccccc1C2=O (centres undefined)	inactive: > 100 µM
O=C1C(NCCc2ccc(O)c([N+](=O)[O-])c2)=CC(=O)c2[nH]cnc21	inactive: 22.4 µM
COc1ccc(N2C(=O)C3c4[nH]c5ccc(OC)cc5c4C4CCC(C(C)(C)C)CC4C3C2=O)cc1 (centres undefined)	inactive: 32.1 µM
O=[N+]([O-])C(=C(\Cl)NCCO)/C(Cl)=C(/Cl)Br	inactive: 14.9 µM
CCN1N=CSC12C(=O)N(c1ccccc1)C(=O)N2c1ccccc1 (centres undefined)	inactive: > 100 µM
CC(=O)n1cc(CC(C)O)c(=O)[nH]c1=O (centres undefined)	inactive: > 100 µM
CCNc1nnc(-c2ccccc2Nc2ccccc2-c2nnc(NCC)s2)s1	inactive: 18 µM
C=CCc1cc(C=C(C#N)C#N)cc(OC)c1O	inactive: > 100 µM

SMILES	GI50
O=C1Nc2c(Cl)cc(Cl)cc2/C1=N/Nc1ccccc1[N+](=O)[O-]	inactive: 99.1 µM
Nc1c2ccccc2nc2c(C(=O)Nc3ccc(S(N)(=O)=O)cc3)cccc12	inactive: 35.4 µM
CCCc1c(C(=O)OCC)[nH]c(C(=O)CCC(=O)c2[nH]c(C(=O)OCC)c(CCC)c2C(=O)OCC)c1C(=O)OCC	inactive: > 100 µM
C=CCC1=C2CCCCC2CCC1=O (centres undefined)	inactive: > 100 µM
CC(/C(=N\Nc1ccccc1)c1ccc(O)cc1)C1C(=O)Oc2ccccc21 (centres undefined)	inactive: > 100 µM
COc1ccc(-c2nnc3n(Cc4ccccc4)c4ccccc4n3c2=O)cc1	inactive: > 100 µM
Cn1c(=O)c2c(ncn2CCCCn2ccnc2[N+](=O)[O-])n(C)c1=O	inactive: > 100 µM
COc1cc([C@@H]2c3cc4c(cc3[C@@H](Nc3ccc(Cl)cc3C(=O)c3ccccc3)[C@H]3COC(=O)[C@H]23)OCO4)cc(OC)c1OC	active: 0.555 µM
c1ccc2c(c1)C1CCCCCC21N1CCOCC1 (centres undefined)	inactive: > 100 µM
CC(=O)Oc1ccc(-c2cc3ccccc3oc2=O)cc1OC(C)=O	inactive: 24 µM
O=C(O)Cc1cc(O)c(CC(=O)O)cc1O	inactive: > 100 µM
C[N+](C)(C)[BH-](Br)C(O)O (centres undefined)	inactive: > 100 µM
CC(C)CCC[C@@H](C)[C@H]1CC[C@H]2[C@@H]3CC[C@H]4C[C@@H](CCC=C(c5cc(Cl)c(O)c(C(=O)O)c5)c5cc(Cl)c(O)c(C(=O)O)c5)CC[C@]4(C)[C@H]3CC[C@]12C	inactive: 98.2 µM
COc1ccc(S(=O)(=O)Nc2ccccc2C(=O)O)cc1	inactive: > 100 µM
Cn1ncc2c(Cl)ncnc21	inactive: > 100 µM
O=C1C=C2SC3C[C@@]24CC1[N+]1=c2c4c(c(O)c4c2=C(C=N4)CC1)N3	inactive: 2.9 µM
CCCCCCCCCCCCC(O)C1CCC(C(O)CCCCC(O)CCCCCC2CC(CC(C)=O)C(=O)O2)O1 (centres undefined)	inactive: 9.1 µM
CSc1ccc2c(c1)N(CCCN(C)C)c1ccccc1S2	inactive: 13.7 µM
CC(=O)O[C@H]1C(=O)[C@@]2(C)[C@H]([C@H](OC(=O)c3ccccc3)[C@]3(O)C[C@H](OC(=O)[C@H](O)[C@@H](NC(=O)C(C)(C)C)c4ccccc4)C(C)=C1C3(C)C)[C@]1(OC(C)=O)CO[C@@H]1C[C@@H]2O	active: 0.232 µM
CN(C)CCNc1ccc2c(=O)n(CCN(C)C)c(=O)n3c4ccc([N+](=O)[O-])cc4c(=O)c1c23	active: 0.31 µM
